Measured values: PubChem BioAssay AID624255 (Broad Institute, 2012)
Where “and” joins values, the source holds several entries; their conditions need not be identical. Identical values can stand only once. About 4,600 (6%) of roughly 77,000 compounds were called active. This list was built around the results that the source calls inconclusive (neither active nor inactive); the mix of calls is not that of the screen.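 How the source made its calls: active means mean inhibition above about 93%, with at least 55% of replicates each passing it (limit read from the data, passing the limit was not always enough); inconclusive means only one of those two conditions holds; inactive means neither condition holds.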

Experiment: T. cruzi intracellular proliferation inhibitors, primary screen, cell-based, beta-gal Tulahuen parasites, NIH3T3 host, luminescence (AID 624255)
Settings: T. cruzi beta-gal in NIH3T3, GalScreen luminescence, 90 h; at 8.34 µM; stronger effect = higher value

Row | Structure (SMILES) | inhibition
1 | COc1cccc(S(=O)(=O)N(C)C[C@H]2OCc3cn(nn3)CCCC(=O)N([C@H](C)CO)C[C@@H]2C)c1 | inconclusive: 100%
2 | C[C@@H]1CCCCO[C@H](CN(C)Cc2ccc(Cl)c(Cl)c2)[C@@H](C)CN([C@@H](C)CO)C(=O)c2cc(NS(=O)(=O)c3cn(C)cn3)ccc2O1 | inactive: 38.7%
3 | C[C@H](CO)N1C[C@H](C)[C@@H](CN(C)CC2CCCC2)Oc2cc(C#CC3CC3)ccc2S1(=O)=O | inconclusive: 91.7%
4 | CCS(=O)(=O)Nc1ccc2c(c1)C(=O)N(C)C[C@H](OC)[C@H](C)CN(CCC(F)(F)F)[C@H](C)CO2 | inconclusive: 42.3%
5 | COc1ccccc1CNC(=O)C[C@@H]1C[C@@H]2c3cc(NC(=O)NC4CCCC4)ccc3O[C@@H]2[C@@H](CO)O1 | active: 111%
6 | C[C@@H]1CCCCO[C@@H](CN(C)S(=O)(=O)c2cccs2)[C@H](C)CN([C@@H](C)CO)C(=O)c2cc(NC(=O)CCCN(C)C)ccc2O1 | inactive: 58%
7 | COc1ccc(S(=O)(=O)Nc2cccc3c2O[C@@H](CN(C)Cc2ccc(C(=O)Nc4ccccc4N)cc2)[C@@H](C)CN([C@@H](C)CO)C3=O)cc1 | inconclusive: 95.5%
8 | C[C@H]1CN([C@@H](C)CO)C(=O)c2cc(NS(=O)(=O)c3ccc(F)cc3)ccc2O[C@@H]1CN(C)S(=O)(=O)c1cn(C)cn1 | inactive: 11.9%
9 | COc1ccc(S(=O)(=O)Nc2ccc3c(c2)C(=O)N([C@H](C)CO)C[C@@H](C)[C@@H](CN(C)S(=O)(=O)c2cn(C)cn2)OCCCC[C@H](C)O3)cc1 | inactive: -71.4%
10 | C[C@H](CO)N1C[C@H](C)[C@@H](CN(C)Cc2ccc(-c3ccccc3)cc2)OCc2cnnn2CCCC1=O | inconclusive: 97.7% and inactive: 46.6%
11 | C[C@@H]1CCCCO[C@@H](CN(C)S(=O)(=O)c2cccs2)[C@H](C)CN([C@H](C)CO)C(=O)c2cc(NC(=O)Nc3ccccc3)ccc2O1 | active: 112%
12 | C[C@@H]1CCCCO[C@@H](CN(C)C(=O)Nc2ccccc2)[C@H](C)CN([C@@H](C)CO)C(=O)c2cc(NS(=O)(=O)c3ccc(Cl)cc3)ccc2O1 | inconclusive: 98.3%
13 | C[C@@H]1CN([C@@H](C)CO)C(=O)c2cc(NS(=O)(=O)c3ccc(F)cc3)ccc2O[C@H]1CN(C)Cc1ccc(Cl)c(Cl)c1 | inconclusive: 96.6%
14 | CN(C)CC(=O)N[C@H]1CC[C@@H](CC(=O)NCCN2CCCCC2)O[C@H]1CO | inactive: -51.7%
15 | Cc1cc(C(=O)Nc2cccc3c2O[C@H](CN(C)Cc2ccncc2)[C@@H](C)CN([C@H](C)CO)C3=O)n(C)n1 | inactive: 2.5%
